Results taken from article PMC4336329 (PLoS ONE, 2015).
Among all 310,000 compounds or so, about 14,000 (4.5%) showed an effect of 50% or more. Effects have a minus sign here. The list shows a part of the results.

What follows are molecules tested against human ether-à-go-go-related gene (hERG) potassium channel (human, UniProt Q12809) (assay: primary screen, population patch clamp on CHO cells stably expressing hERG).
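Note: peak tail current of the secondary pulse compared with the same well before compound.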

human ether-à-go-go-related gene (hERG) potassium channel, sequence (Q12809 whole entry, looked up): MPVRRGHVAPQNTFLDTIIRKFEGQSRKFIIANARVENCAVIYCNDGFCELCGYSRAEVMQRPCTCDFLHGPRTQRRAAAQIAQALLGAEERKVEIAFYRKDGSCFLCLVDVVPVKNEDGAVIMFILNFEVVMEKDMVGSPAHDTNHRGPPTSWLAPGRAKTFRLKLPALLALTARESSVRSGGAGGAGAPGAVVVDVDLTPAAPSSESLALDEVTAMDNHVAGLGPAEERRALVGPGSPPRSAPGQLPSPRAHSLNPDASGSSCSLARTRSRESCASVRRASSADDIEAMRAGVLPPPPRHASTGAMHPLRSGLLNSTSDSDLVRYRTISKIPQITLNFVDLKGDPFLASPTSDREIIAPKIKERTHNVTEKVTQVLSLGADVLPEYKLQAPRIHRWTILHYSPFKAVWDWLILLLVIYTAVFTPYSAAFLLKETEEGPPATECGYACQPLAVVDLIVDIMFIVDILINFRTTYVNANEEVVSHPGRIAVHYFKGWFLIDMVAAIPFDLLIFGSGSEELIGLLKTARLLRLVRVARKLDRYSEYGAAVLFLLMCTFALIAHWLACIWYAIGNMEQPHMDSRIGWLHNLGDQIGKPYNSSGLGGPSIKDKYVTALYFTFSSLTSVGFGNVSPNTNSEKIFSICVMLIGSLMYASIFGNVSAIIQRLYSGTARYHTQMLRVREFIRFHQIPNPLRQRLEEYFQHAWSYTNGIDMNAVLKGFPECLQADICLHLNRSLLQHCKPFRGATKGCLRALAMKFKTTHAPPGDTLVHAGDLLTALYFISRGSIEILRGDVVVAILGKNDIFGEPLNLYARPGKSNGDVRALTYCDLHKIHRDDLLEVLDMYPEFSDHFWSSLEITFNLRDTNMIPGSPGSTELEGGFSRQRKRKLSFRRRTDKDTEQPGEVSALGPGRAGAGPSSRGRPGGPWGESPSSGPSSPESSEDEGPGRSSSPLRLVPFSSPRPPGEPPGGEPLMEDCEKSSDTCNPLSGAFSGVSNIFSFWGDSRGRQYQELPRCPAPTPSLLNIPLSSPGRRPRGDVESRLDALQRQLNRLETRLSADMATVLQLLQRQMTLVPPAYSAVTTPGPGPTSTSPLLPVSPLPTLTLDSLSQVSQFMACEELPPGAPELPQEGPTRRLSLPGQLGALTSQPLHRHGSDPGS

Structure (SMILES)	hERG current change (%, negative = inhibition) at 10uM [%]
CS(=O)(=O)c1ccc(Cl)c(NC(=O)C2CC(=O)N(Cc3ccccc3)C2)c1 (centres unmarked)	-7.81
Cc1nc(Nc2ccc(Cl)cc2Cl)sc1C(=O)Nc1ccccc1	12.6
CCn1c(Cc2ccccc2)nnc1SCC(=O)NC1CC1	19.3
O=C(Cn1cc2c(n1)CCCC2)N1CCc2ccccc21	-2.05
COc1cccc(/C=N/n2cnc3c(cnn3-c3ccccc3)c2=O)c1	9.03
O=C1CCCN1c1ccc(S(=O)(=O)N2CCN(c3ccccn3)CC2)cc1	10.8
Cc1ccc(-c2nn(-c3ccccc3)cc2CN(Cc2ccccc2)C(=O)c2ccco2)o1	-7.34
CCOC(=O)C(=O)NNc1ccccc1C	-1.96
COc1ccccc1CN1CCN(C(c2ccccc2)c2ccccc2)CC1.O=C(O)C(=O)O	-55.1
C=CCN1C(=O)C(O)(CC(=O)c2ccc(Cl)cc2)c2ccccc21 (centres unmarked)	9.77
CCOC(=O)c1ccc(NC(=O)N2CCOCC2)cc1	22.3
Cc1cc(/C=N/N2CCN(C)CC2)c(C)n1-c1ccccc1F	2.54
COc1ccccc1NC(=S)N1CCN(C(=O)c2ccco2)CC1	12.8
CCN(CC)C(=O)c1ccc(-c2nnc(Nc3ccc(O)cc3)c3ccccc23)cc1	18.1
C[C@H](NC(=O)C1CC(=O)N(c2ccc3c(c2)OCCO3)C1)C(=O)NCc1ccco1 (some centres unmarked)	22.6
N#CCc1ccc(NC(=O)Nc2cccc3ccccc23)cc1	17.6
CCOc1ccc(C(C(=O)NC2CCCC2)N(C(=O)CNC(=O)c2ccco2)c2cccnc2)cc1 (centres unmarked)	11.6
Brc1ccc(-c2c(-c3ccsc3)sc3ccccc23)cn1	14.1
COc1ccc(S(=O)(=O)NCCN2CCOCC2)cc1[N+](=O)[O-]	14.9

Structure (SMILES)	hERG current change (%, negative = inhibition) at 10uM [%]
O=C(CN1CCN(CC(=O)Nc2ccc3c(c2)OCO3)CC1)Nc1ccc(F)cc1	-73.4
COc1ccccc1NC(=O)c1cc2ccc(O)cc2o/c1=N\O	2.75
Cc1ccccc1C(=O)NC(CC(C)C)C(=O)OCC(=O)c1c(N)n(C)c(=O)n(C)c1=O (centres unmarked)	-1.31
CC(C)(CNC(=O)C1CCCC1)CNC(=O)C1CCCC1	13.9
Cn1nc(C(C)(C)C)cc1C(=O)Sc1cccc(Br)c1	23.9
C=C(C)CSc1nc(N)cc(=O)[nH]1	-1.7
COc1cccc(CNC(=O)C2CCN(S(=O)(=O)c3ccc4c(c3)CCC(=O)N4)CC2)c1	10.1
CS(=O)(=O)N1CCN(C2C3CC4CC(C3)CC2C4)CC1.O=C(O)C(=O)O (centres unmarked)	26.3
Cc1ccc(NC(=O)CNC(=O)c2ccccc2F)cc1Cl	5.9
COc1ccc(N2CCN(C(=N)/C(C(C)=O)=C(\C)O)CC2)cc1	24.2
Cc1cccc(C(=O)NNC(=O)c2c(-c3ccccc3Cl)noc2C)c1O	2.5
O=C(O)/C=C/c1cn(-c2ccccc2)nc1-c1cccs1	14
Cc1cc(-n2nnc3ccccc32)nc2ccccc12	14.3
C[C@]12C(=O)N(c3ccccc3)C(=O)N1[C@@H]1c3ccccc3OC[C@@H]1[C@H]2c1ccccc1	10.6
Cc1cc(C(=O)OCC(=O)Nc2nc(-c3ccccc3)cs2)c(C)o1	15.8
O=C1N(c2ccccc2)C[C@@H]2C[C@@H](c3cccc4c3OCO4)N3CCC[C@@]123	15.9
Cc1cc(Cl)ccc1NC(=O)CCCN1C(=O)CCC1=O	12.5
CCCCn1c(N)c(N(C)C(=O)C2CCCC2)c(=O)[nH]c1=O	15.2
NC(=O)CC(NC(=O)Cc1cccc2ccccc12)c1ccc(N2CCC(Cc3ccccc3)CC2)c([N+](=O)[O-])c1 (centres unmarked)	8.77

Structure (SMILES)	hERG current change (%, negative = inhibition) at 10uM [%]
COc1ccc(CSc2nncn2C)cc1F	17.6
CSc1ccc(CNC(=O)C2CCC(=O)N(Cc3cccc(F)c3)C2)cc1 (centres unmarked)	-62.4
Cc1nn(-c2ccccc2)c(N)c1Sc1ccc([N+](=O)[O-])cc1	-75.2
CCc1nc(Nc2cc(OC)ccc2OC)c2oc3ccccc3c2n1.Cl	15
CN(C)S(=O)(=O)c1ccc(N=Cc2c(C(F)(F)F)[nH][nH]c2=O)cc1	23
O=C(c1ccco1)N1CCCN(C(=O)c2ccco2)CC1	4.51
CCOC(=O)C1=C(COC(=O)/C=C/c2cccc(Cl)c2)NC(=O)NC1C (centres unmarked)	14.9
CCN1CCN(C(=O)c2ccccc2N(Cc2ccccc2)S(=O)(=O)c2ccc(OC)cc2)CC1	-73.1
CCOc1c(CNCCNC(=O)c2nonc2N)cccc1OC.Cl	8.07
O=C(O)C(=O)O.O=[N+]([O-])c1ccc(OCCCCN2CCc3ccccc3C2)cc1	-76.3
COc1ccc2cc(C3C(C#N)=C(N)OC(C)=C3C(C)=O)c(Cl)nc2c1 (centres unmarked)	4.14
CCn1cc(CN2CCCC(C(=O)c3ccc(-c4ccccc4)c(F)c3)C2)cn1 (centres unmarked)	-57.6
CSc1ccccc1NC(=O)CN1CCCCC1	8.96
C/C=C/C=C/C(=O)O	15.4
COc1ccc(-c2oc3ccc(-c4ccc5c(c4)OCO5)cc3c2C#CC2(O)CCCCC2)cc1	11.4
CCN(CC)c1ccc(-n2cc3c(=O)n(C)c(=O)n(C)c3c2)cc1	-7.37
CCOc1ccc(OCC)c(S(=O)(=O)NCCCN2CCOCC2)c1	3.09
CCOC(=O)N1CCN(C(=O)c2cc(C)c3c(C)nn(-c4ccccc4)c3n2)CC1	-29.5
